This note sets out measurements from patent publication US6830937 (Bristol-Myers Squibb, dated 2004).

Experiment [1] deals with T1, CD4 (on transfected COS cells) (UniProt P01730).
T1 construct: whole, on cells; Control transfectant in the CD28 adhesion assay
As to the kind of experiment: adhesion of 51Cr-labeled transfected COS cells to CD28+ CHO cells.

For experiment [2], the target named is T2, CD5 (on transfected COS cells) (UniProt P06127 25-495, limits assumed).
T2 construct: whole, on cells; Control transfectant in the CD28 adhesion assay
T2 sequence (looked up): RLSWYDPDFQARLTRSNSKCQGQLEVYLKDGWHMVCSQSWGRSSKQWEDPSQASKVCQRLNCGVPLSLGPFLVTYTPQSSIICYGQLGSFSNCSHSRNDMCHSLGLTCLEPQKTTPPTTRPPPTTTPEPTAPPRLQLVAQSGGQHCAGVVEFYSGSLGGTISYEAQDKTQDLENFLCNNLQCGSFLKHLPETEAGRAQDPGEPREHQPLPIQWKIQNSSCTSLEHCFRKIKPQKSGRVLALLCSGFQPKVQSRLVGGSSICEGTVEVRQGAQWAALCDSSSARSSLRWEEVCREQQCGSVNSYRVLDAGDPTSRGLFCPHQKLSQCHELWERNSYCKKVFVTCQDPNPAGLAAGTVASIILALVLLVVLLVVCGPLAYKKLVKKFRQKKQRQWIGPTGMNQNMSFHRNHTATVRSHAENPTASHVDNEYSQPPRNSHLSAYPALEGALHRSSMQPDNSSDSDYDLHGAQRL
The description is as above.

A further experiment has as its target T3, B7 antigen (UniProt P33681 35-288, limits assumed).
T3 construct: whole, on cells; Whole membrane protein on cells; also called B7/BB-1 antigen; ligand for CD28
T3 sequence (looked up): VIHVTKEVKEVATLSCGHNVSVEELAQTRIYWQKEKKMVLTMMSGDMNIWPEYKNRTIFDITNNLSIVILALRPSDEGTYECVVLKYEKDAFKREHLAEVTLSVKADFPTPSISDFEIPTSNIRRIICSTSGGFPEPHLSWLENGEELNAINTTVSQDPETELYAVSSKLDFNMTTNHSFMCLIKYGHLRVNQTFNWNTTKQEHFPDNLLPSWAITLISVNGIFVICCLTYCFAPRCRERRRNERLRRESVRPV
As to the kind of experiment: cell adhesion assay, 51Cr-labeled COS cells on CD28+ CHO monolayers, 10 mM EDTA.

B1: CD28 receptor (receptor)
chain: not shown
notes: whole, on cells; also called CD28 antigen; CD28+ CHO cells
For the molecule B1, the binding result is reported as “no binding” in experiment [1], “no binding” in experiment [2] and “binds” with B7 antigen.
